Reference: the supplement of paper PMC12217912
The other results are listed elsewhere or left out. Sequences were assembled here from the parent chain. Values near 0.05 are background.

B1: TEV protease; numbered along this chain (parent)
chain: MGESLFKGPRDYNPISSSICHLTNESDGHTTSLYGIGFGPFIITNKHLFRRNNGTLVVQSLHGVFKVKDTTTLQQHLVDGRDMIIIRMPKDFPPFPQKLKFREPQREERICLVTTNFQTKSMSSMVSDTSCTFPSGDGIFWKHWIQTKDGQCGSPLVSTRDGFIVGIHSASNFTNTNNYFTSVPKNFMELLTNQEAQQWVSGWRLNADSVLWGGHKVFMVKPEEPFQPVKEATQL

Variants of: B1
Assay: raw area under fraction-flipped curve 0-4 h after induction (AUC4h, not background-subtracted), DNA-recorder readout of cleavage of the substrate (dimensionless); higher = more cleavage of the substrate by the protease variant
Conditions: temperature: 34 °C; time window: 0-4 h after rhamnose induction
Description: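 In vivo DNA recorder in E. coli TOP10(DE3) ΔrhaA at 34 °C. Each TEVp single-site mutant (parent TEVp 0) is paired with a single-site variant of the 7-mer TEVs (canonical ENLYFQ|S). The substrate sits between flexible linkers in a Bxb1-sfGFP-TEVs-SsrA fusion, so cleavage stabilises Bxb1 and speeds flipping of a recombination array, read by NGS. The value is the raw area under the fraction-flipped curve over 0-4 h after rhamnose induction (AUC4h), with ≥20 reads per time point. It is not background-subtracted; inactive controls average about 0.047.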
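Further: Bxb1 expression induced with 0.2% (w/v) L-rhamnose at OD600 near 0.5, cultures sampled hourly, flipped fraction per protease–substrate barcode pair counted by paired-end Illumina sequencing.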

In the case of C20Y, the “area with substrate ENLYFQA” value is reported as 0.0562, the “area with substrate ENLYFQC” value is reported as 0.0538 and the “area with substrate ENLYFQE” value is reported as 0.0549. For the same variant, the “area with substrate ENLYFQI” value was 0.069, the “area with substrate ENLYFQK” value was 0.0574 and the “area with substrate ENLYFQL” value was 0.0436. For the same variant, the “area with substrate ENLYFQM” value was 0.0537, the “area with substrate ENLYFQR” value was 0.056 and the “area with substrate ENLYFQS” value was 0.0608. For the same variant, the “area with substrate ENLYFQT” value was 0.0441, the “area with substrate ENLYFQV” value was 0.0428 and the “area with substrate ENLYFQW” value was 0.0565.

In the case of L22F, the “area with substrate ENLYFQA” value is reported as 0.0517, the “area with substrate ENLYFQC” value is reported as 0.085 and the “area with substrate ENLYFQH” value is reported as 0.0616. The “area with substrate ENLYFQI” value was 0.0543, the “area with substrate ENLYFQK” value was 0.0445 and the “area with substrate ENLYFQL” value was 0.0573. The “area with substrate ENLYFQM” value was 0.0577, the “area with substrate ENLYFQN” value was 0.0647 and the “area with substrate ENLYFQP” value was 0.0498. For the same variant, the “area with substrate ENLYFQQ” value was 0.0565, the “area with substrate ENLYFQR” value was 0.0456 and the “area with substrate ENLYFQS” value was 0.0679. The “area with substrate ENLYFQT” value was 0.0528, the “area with substrate ENLYFQW” value was 0.0612 and the “area with substrate ENLYFQY” value was 0.0464.

With D27R the “area with substrate ENLYFQA” value was 0.102, the “area with substrate ENLYFQC” value was 0.0895 and the “area with substrate ENLYFQN” value was 0.0813. The “area with substrate ENLYFQR” value was 0.054, the “area with substrate ENLYFQS” value was 0.0897 and the “area with substrate ENLYFQW” value was 0.0566. For the same variant, the “area with substrate ENLYFQY” value was 0.0815.

For G28V, the “area with substrate ENLYFQA” value was 0.071, the “area with substrate ENLYFQC” value was 0.0856 and the “area with substrate ENLYFQD” value was 0.0696. The “area with substrate ENLYFQF” value was 0.067, the “area with substrate ENLYFQG” value was 0.0734 and the “area with substrate ENLYFQI” value was 0.0555. For the same variant, the “area with substrate ENLYFQL” value was 0.06, the “area with substrate ENLYFQM” value was 0.0852 and the “area with substrate ENLYFQN” value was 0.0652. For the same variant, the “area with substrate ENLYFQP” value was 0.0543, the “area with substrate ENLYFQQ” value was 0.0834 and the “area with substrate ENLYFQR” value was 0.0594. For the same variant, the “area with substrate ENLYFQS” value was 0.0798, the “area with substrate ENLYFQT” value was 0.0653 and the “area with substrate ENLYFQY” value was 0.0829.

For T30A, the “area with substrate ENLYFQA” value was 0.0777, the “area with substrate ENLYFQC” value was 0.14 and the “area with substrate ENLYFQD” value was 0.0706. For the same variant, the “area with substrate ENLYFQE” value was 0.0449, the “area with substrate ENLYFQF” value was 0.0571 and the “area with substrate ENLYFQG” value was 0.107. The “area with substrate ENLYFQH” value was 0.0846, the “area with substrate ENLYFQI” value was 0.0581 and the “area with substrate ENLYFQK” value was 0.0804. The “area with substrate ENLYFQL” value was 0.0597, the “area with substrate ENLYFQM” value was 0.0987 and the “area with substrate ENLYFQN” value was 0.103. The “area with substrate ENLYFQR” value was 0.0545, the “area with substrate ENLYFQS” value was 0.106 and the “area with substrate ENLYFQT” value was 0.0958. For the same variant, the “area with substrate ENLYFQV” value was 0.0809 and the “area with substrate ENLYFQW” value was 0.0761.

With T31H the “area with substrate ENLYFQA” value was 0.0734, the “area with substrate ENLYFQC” value was 0.0821 and the “area with substrate ENLYFQD” value was 0.0758. For the same variant, the “area with substrate ENLYFQF” value was 0.0705, the “area with substrate ENLYFQG” value was 0.0871 and the “area with substrate ENLYFQH” value was 0.062. For the same variant, the “area with substrate ENLYFQI” value was 0.0412, the “area with substrate ENLYFQN” value was 0.0627 and the “area with substrate ENLYFQR” value was 0.0591. For the same variant, the “area with substrate ENLYFQS” value was 0.0915, the “area with substrate ENLYFQV” value was 0.0694 and the “area with substrate ENLYFQW” value was 0.071. For the same variant, the “area with substrate ENLYFQY” value was 0.0685.

With T31L the “area with substrate ENLYFQA” value was 0.153, the “area with substrate ENLYFQC” value was 0.163 and the “area with substrate ENLYFQF” value was 0.125. For the same variant, the “area with substrate ENLYFQG” value was 0.143, the “area with substrate ENLYFQH” value was 0.0865 and the “area with substrate ENLYFQI” value was 0.0515. For the same variant, the “area with substrate ENLYFQK” value was 0.0529, the “area with substrate ENLYFQL” value was 0.0648 and the “area with substrate ENLYFQM” value was 0.143. The “area with substrate ENLYFQN” value was 0.0894, the “area with substrate ENLYFQQ” value was 0.0646 and the “area with substrate ENLYFQR” value was 0.0508. For the same variant, the “area with substrate ENLYFQS” value was 0.111 and the “area with substrate ENLYFQW” value was 0.0595.

With L33E the “area with substrate ENLYFQA” value was 0.0644, the “area with substrate ENLYFQC” value was 0.0935 and the “area with substrate ENLYFQD” value was 0.0087. The “area with substrate ENLYFQG” value was 0.0708, the “area with substrate ENLYFQK” value was 0.0622 and the “area with substrate ENLYFQN” value was 0.0663. The “area with substrate ENLYFQR” value was 0.0643, the “area with substrate ENLYFQS” value was 0.0715 and the “area with substrate ENLYFQT” value was 0.0683. The “area with substrate ENLYFQV” value was 0.0517 and the “area with substrate ENLYFQW” value was 0.0623.

For Y34E, the “area with substrate ENLYFQA” value was 0.08, the “area with substrate ENLYFQD” value was 0.0748 and the “area with substrate ENLYFQE” value was 0.0549. The “area with substrate ENLYFQF” value was 0.0741, the “area with substrate ENLYFQG” value was 0.0651 and the “area with substrate ENLYFQH” value was 0.0642. For the same variant, the “area with substrate ENLYFQL” value was 0.0597, the “area with substrate ENLYFQM” value was 0.0611 and the “area with substrate ENLYFQR” value was 0.0501. The “area with substrate ENLYFQS” value was 0.0773, the “area with substrate ENLYFQV” value was 0.0736 and the “area with substrate ENLYFQW” value was 0.0725. For the same variant, the “area with substrate ENLYFQY” value was 0.0219.

For G39P, the “area with substrate ENLYFQA” value was 0.0476, the “area with substrate ENLYFQC” value was 0.0407 and the “area with substrate ENLYFQD” value was 0.0558. For the same variant, the “area with substrate ENLYFQG” value was 0.0978, the “area with substrate ENLYFQH” value was 0.0461 and the “area with substrate ENLYFQL” value was 0.041. For the same variant, the “area with substrate ENLYFQM” value was 0.0403, the “area with substrate ENLYFQN” value was 0.0373 and the “area with substrate ENLYFQP” value was 0.037. The “area with substrate ENLYFQR” value was 0.0416, the “area with substrate ENLYFQS” value was 0.041 and the “area with substrate ENLYFQT” value was 0.0423. For the same variant, the “area with substrate ENLYFQV” value was 0.0356 and the “area with substrate ENLYFQW” value was 0.0417.

For F41K, the “area with substrate ENLYFQA” value was 0.0679, the “area with substrate ENLYFQC” value was 0.0644 and the “area with substrate ENLYFQG” value was 0.0936. For the same variant, the “area with substrate ENLYFQH” value was 0.044, the “area with substrate ENLYFQK” value was 0.0523 and the “area with substrate ENLYFQL” value was 0.0633. For the same variant, the “area with substrate ENLYFQM” value was 0.0806, the “area with substrate ENLYFQP” value was 0.0575 and the “area with substrate ENLYFQR” value was 0.0388. For the same variant, the “area with substrate ENLYFQS” value was 0.0624, the “area with substrate ENLYFQT” value was 0.0504 and the “area with substrate ENLYFQY” value was 0.0044.

With F41R the “area with substrate ENLYFQA” value was 0.0497, the “area with substrate ENLYFQC” value was 0.0404 and the “area with substrate ENLYFQF” value was 0.0667. For the same variant, the “area with substrate ENLYFQG” value was 0.0585, the “area with substrate ENLYFQH” value was 0.0522 and the “area with substrate ENLYFQK” value was 0.0561. The “area with substrate ENLYFQM” value was 0.0565, the “area with substrate ENLYFQP” value was 0.0603 and the “area with substrate ENLYFQR” value was 0.0677. The “area with substrate ENLYFQS” value was 0.0558, the “area with substrate ENLYFQT” value was 0.0637 and the “area with substrate ENLYFQV” value was 0.0578. For the same variant, the “area with substrate ENLYFQY” value was 0.0516.

For F41S, the “area with substrate ENLYFQA” value was 0.0812, the “area with substrate ENLYFQC” value was 0.0922 and the “area with substrate ENLYFQD” value was 0.0311. For the same variant, the “area with substrate ENLYFQE” value was 0.0767, the “area with substrate ENLYFQG” value was 0.0726 and the “area with substrate ENLYFQH” value was 0.0716. The “area with substrate ENLYFQI” value was 0.0469, the “area with substrate ENLYFQK” value was 0.049 and the “area with substrate ENLYFQL” value was 0.0554. The “area with substrate ENLYFQM” value was 0.0648, the “area with substrate ENLYFQN” value was 0.0618 and the “area with substrate ENLYFQP” value was 0.0609. The “area with substrate ENLYFQQ” value was 0.0639, the “area with substrate ENLYFQR” value was 0.0439 and the “area with substrate ENLYFQS” value was 0.0829. For the same variant, the “area with substrate ENLYFQT” value was 0.048, the “area with substrate ENLYFQV” value was 0.0386 and the “area with substrate ENLYFQW” value was 0.0798. For the same variant, the “area with substrate ENLYFQY” value was 0.062.
